From PubChem BioAssay AID485344 (National Center for Advancing Translational Sciences (NCATS), 2010) come the findings set out here.

Out of some 340,000 compounds screened, about 6,900 (2%) were called active. No stated cut-off is given here; in the data, active means inhibition above about 30%; inactive means below that, where a call was filed. The entries are a selection whose mix differs from that of the whole data set. Entries without a call were filed so in the source.

UniProt P14416, sequence (P14416 whole entry, looked up): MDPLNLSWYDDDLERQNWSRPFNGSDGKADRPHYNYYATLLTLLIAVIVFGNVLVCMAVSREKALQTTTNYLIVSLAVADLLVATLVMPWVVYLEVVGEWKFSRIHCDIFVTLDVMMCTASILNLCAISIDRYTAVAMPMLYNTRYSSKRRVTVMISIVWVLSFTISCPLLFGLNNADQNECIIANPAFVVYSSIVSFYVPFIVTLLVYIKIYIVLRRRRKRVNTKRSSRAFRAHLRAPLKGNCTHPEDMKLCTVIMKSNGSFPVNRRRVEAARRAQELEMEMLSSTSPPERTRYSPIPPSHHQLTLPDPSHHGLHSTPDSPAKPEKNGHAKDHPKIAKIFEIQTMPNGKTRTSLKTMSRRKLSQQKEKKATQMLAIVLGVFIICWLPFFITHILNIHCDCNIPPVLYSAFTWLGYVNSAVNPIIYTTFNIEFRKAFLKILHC

The test addresses D(2) dopamine receptor (Homo sapiens) (UniProt P14416). The test can be described thus: HTS Assay for Allosteric Antagonists of the Human D2 Dopamine Receptor: Primary Screen for Antagonists. Further: 0% is about no effect. Particulars: HEK293 TREx D2 cells, calcium flux, dopamine EC80; at 10 µM; stronger effect = higher value. The essentials:
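Cells plated overnight at 30 C with tetracycline; no-wash calcium dye, 30–90 min RT; 10 s baseline; compound pinned; 180 s read; EC80 dopamine added; another 180 s read.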
With `Cn1cnc(S(=O)(=O)N2CCC(C(=O)NCc3ccc(F)cc3)CC2)c1`, the inhibition is -9.33%.
As to `O=C(Cc1ccc(Cl)cc1)NCC(c1cccs1)S(=O)(=O)c1ccc(F)cc1` (stereo unspecified), the inhibition is -17.2%.
The result for `Cc1cccc(N2CCN(CCCNC(=O)c3nnc(Cc4c(F)cccc4Cl)o3)CC2C)c1` (stereo unspecified) reads -23.2%; that for `O=C(Cn1c(=O)n(-c2ccc(Cl)cc2)c(=O)c2oc3ccccc3c21)Nc1ccccc1`, 2.78%; that for `CC1CCN(c2ncnc3c2nnn3C)CC1`, -6.81%.
The result for `O=C(c1ccco1)N1CCN(c2nc3c(Cl)cccc3s2)CC1` reads 0.87%; that for `CCN(CC)S(=O)(=O)c1nnc(NC(=O)c2ccc(C(C)C)cc2)s1`, 14.9%; that for `CCOc1ccc(C(=O)Nc2cc(-c3cn4cccnc4n3)ccc2C)cc1OCC`, 13.3%.
Then `Cc1cc(C)cc(NC(=O)C2CCC(CNS(=O)(=O)c3ccc4c(c3)C(C)(C)C(=O)N4C)CC2)c1` (stereo unspecified), with -14.8%; and `CCn1cc(C(=O)NCCc2ccc(C)cc2)c(=O)c2cc(S(=O)(=O)N3CCCCC3)ccc21`, with 23.3%; and `COc1ccc(CCNC(=O)c2c(C)oc3ncn(CC(C)C)c(=O)c23)cc1OC`, with -3.28%.
For `O=C(c1ccc(F)cc1)C1CCN(C(=O)c2ccc(F)cc2)CC1`, the inhibition is active: 41%.
The result for `COCC(=O)Nc1ccc(OC)c(Cl)c1` reads active: 36.6%; that for `COc1cccc(CNC(=O)CN2C(=O)COc3ccc(S(=O)(=O)Nc4ccccc4)cc32)c1`, -2.11%.
The result for `O=C(CCS(=O)(=O)c1cc(Br)cc2c1N(C(=O)C1CC1)CC2)Nc1ccc(C(F)(F)F)cc1` reads -2.52%.
The result for `CN(Cc1ccccc1)C(=O)C1CCN(S(=O)(=O)c2ccc3nc4c(c(C(=O)O)c3c2)CCCC4)CC1` reads 1.7%; that for `COc1ccc(CNC(=O)C2CCN(C(=O)N3CC(C)Oc4ccc(C)cc43)CC2)cc1` (stereo unspecified), 13.2%.
Turning to `Cn1c(=O)c2sccc2n2c(CCC(=O)NCc3ccccc3Cl)nnc12`, the inhibition is -16.4%.
`O=C(Nc1ccc(Cl)cc1)c1cc(S(=O)(=O)N2CCc3ccccc32)ccc1F`: the inhibition was found to be 15.3%.
Then `Cc1ccc(S(=O)(=O)Nc2nc3n(n2)C(c2ccccc2Cl)C=C(c2ccccc2)N3)cc1` (stereo unspecified), with 22%; and `COc1ccc(-c2nc(Cn3c(SCc4ccccc4F)nc4ccncc43)c(C)o2)cc1OC`, with -10.7%; and `Cc1cccc(NC(=O)c2oc3ccccc3c2NC(=O)c2cc(=O)c3cc(Cl)ccc3o2)c1`, with 16.1%.
Turning to `Cn1c(SCC(=O)c2ccc(F)cc2)nnc1-c1ccccc1Br`, the inhibition was -13.1%.
Then `COc1ccc(C)cc1NC(=O)CSc1ccc(-c2ccccn2)nn1`, with -6.52%.
With `COc1ccccc1C(=O)Nc1c(C(=O)N(C)c2ccccc2)sc2nc(C)cc(C)c12`, the inhibition worked out at 8.92%.
Then `COc1ccc(CNC(=O)c2ccc3c(c2)CCN3S(=O)(=O)c2ccc(C)cc2)cc1`, with -8.18%; and `Cc1ccc(NC(=O)C2CCCN2S(=O)(=O)c2cccc3nsnc23)cc1Cl` (stereo unspecified), with 27.5%.
Then `O=[N+]([O-])c1ccc(N2CCCC2)cc1NC(c1ccccc1)c1ccccc1`, with active: 30%; and `CCN1CCN(C(=O)Cn2nc(C)n3c(cc4c(OC)cccc43)c2=O)CC1`, with active: 35.3%.
The result for `Cc1ccccc1C(=O)N1CCN(CCc2ccccn2)CC1` reads 7.27%.
On to `CC1CCN(S(=O)(=O)c2ccc3c(c2)CCN3C(=O)Nc2ccc(Br)cc2)CC1`, for which the inhibition amounted to 6.34%.
Then `Cc1c(C(=O)Nc2ccc(C(C)C)cc2)sc2nc[nH]c(=O)c12`, with -19.5%.
Then `CC1CCN(S(=O)(=O)c2ccc3c(c2)N(CC(=O)NC(C)C)C(=O)CO3)CC1`, with 5.09%; and `COc1ccc(CC(=O)Nc2cc(S(=O)(=O)N3CCCCC3)ccc2C)cc1`, with active: 30.7%; and `COc1cccc(CNC(=O)CSc2ncc(S(=O)(=O)c3ccc(Br)cc3)c(=O)[nH]2)c1`, with -3.22%.
The result for `Cc1ccc(-c2nnc(Nc3ccc(Cl)c(Cl)c3)c3ccccc23)cc1S(=O)(=O)NCCO` reads 4.51%.
As for `Cc1ccccc1-c1noc(-c2cccnc2N(C)Cc2ccc(Cl)cc2)n1`, the inhibition turned out to be 16.3%.
`COc1ccc(CCNC(=O)CSc2nnnn2-c2cccc(C(C)=O)c2)cc1OC`: the inhibition was -7.59%.
Then `Fc1ccc(Cc2cn3cc(-c4ccccc4)nc3s2)cc1`, with -15.2%.
Then `CCOC(=O)c1ccc(NC(=O)c2csnn2)cc1`, with 6.32%; and `CCOC(=O)c1cccc(NC(=O)CCC(=O)N2CC(C)Oc3ccc(C)cc32)c1` (stereo unspecified), with -14.2%; and `Cc1ccc(CNC(=O)c2c(O)nc3c(C)cccn3c2=O)cc1`, with -3.91%.
Then `CCN(CC)CCCNC(=O)c1ccc2c(c1)NC(=O)C(CS(=O)(=O)Cc1cccc(Br)c1)N2` (stereo unspecified), with 7.43%.
In the case of `COc1ccc(Br)cc1CNC(=O)c1nn(-c2ccc(C)cc2)c(=O)c2c1c1ccccc1n2C`, the inhibition is 19.9%.
Then `CN(C)c1ccc(CNS(=O)(=O)c2ccc3[nH]c4c(c3c2)CCCCC4)cc1`, with 4.2%; and `C=Cc1ccc(CN2C(=O)c3ccccc3Sc3ccc(C(=O)OCc4ccco4)cc32)cc1`, with 5.57%; and `O=C(Nc1ccccc1)N(Cc1ccc(F)cc1)c1ccccn1`, with 21.3%.
The result for `Cc1cc(O)c(C(c2ccccc2)N2CCN(C)CC2)c(=O)n1Cc1ccco1` (stereo unspecified) reads 9.58%.
The result for `COc1ccc(-c2noc(CN(C(C)C)S(=O)(=O)c3ccc(Br)cc3)n2)cc1` reads -3.82%; that for `CN1CCN(c2ccccc2/C=C2/C(=O)Nc3ccccc32)CC1`, active: 37.2%.
Consider `Cc1cccc(NC2=CC(c3cccc(Br)c3)N(c3cccc(C)c3)C2=O)c1` (stereo unspecified), for which the inhibition was -4.26%.
Then `CCOC(=O)c1c(C)[nH]c(C)c1S(=O)(=O)NCC(=O)N1CCN(c2cccc(C)c2)C(C)C1` (stereo unspecified), with -9.36%.
Then `CCc1ccc(CCC(=O)Nc2ccc(Cl)cc2)o1`, with active: 41.5%; and `O=C(Cn1c(=O)nc(-c2ccccc2)c2ccccc21)NCc1ccc(F)cc1`, with -4.85%; and `C#CCNC(=O)C1=C[C@@H](c2ccc(C#C)cc2)[C@H](CCCO)[C@@H](OCC)O1`, with active: 31.9%.
On to `CCc1ccc(NCc2cc3cc(OC)c(OC)cc3n(CC(=O)Nc3cc(C)ccc3C)c2=O)cc1`, for which the inhibition is -3.94%.
Then `CN(C(=O)CN1C(=O)CCSc2ccc(S(=O)(=O)N3CCCC3)cc21)c1ccccc1`, with -9.1%; and `CCC(C)OC(=O)/C(C#N)=C\c1ccc(-c2cccc(C(F)(F)F)c2)o1` (stereo unspecified), with 12.9%; and `COc1ccc(C(C)n2c(C)c3c(C)nnc(C)c3c2C)cc1` (stereo unspecified), with -4.52%.
Then `Cc1cccc(C)c1Nc1nc2ccccc2nc1NS(=O)(=O)c1ccccc1`, with 10.9%.
Turning to `COc1ccc(S(=O)(=O)N(CC(=O)NCc2ccccc2)c2ccc(C)cc2)cc1OC`, the inhibition amounted to 10.4%.
For the compound `O=S(=O)(c1ccc2c(c1)CCN2)N1CCCCCC1`, the inhibition was -5.44%.
Then `O=C(CCN1CCc2ccccc2C1)Nc1ccccc1`, with active: 57.3%; and `Cc1ccc2c(c1)c1c(c(=O)n(Cc3ccccc3)c(=O)n1CC(=O)NCc1ccccc1Cl)n2C`, with 6.23%; and `CSCCC(NC(=O)c1ccc(Cl)cc1Cl)C(=O)NNC(=O)c1csc(N2CCOCC2)n1` (stereo unspecified), with active: 33.7%.
Then `CCOC(=O)C(Cc1c[nH]c2ccccc12)NC(=O)COc1ccc(Cl)c(C)c1` (stereo unspecified), with 1.14%.
The result for `COc1cccc(CNC(=O)C2CCC(CNS(=O)(=O)c3ccc(Br)s3)CC2)c1` (stereo unspecified) reads -0.65%.
Consider `CCOc1nc(NC(=O)NS(=O)(=O)Oc2ccccc2)nc(-c2ccccc2)n1`, for which the inhibition stood at 1.26%.
The result for `CCc1ccc(Sc2cc(C(=O)NC(C)CC)c3ccccc3n2)cc1` (stereo unspecified) reads 19.5%.
Then `COc1cccc(NC(=O)c2cnn(-c3ccccc3)c2-n2cccc2)c1`, with 10.8%; and `COc1ccccc1-n1c(/C=C/c2c(C)n(C)c3ccccc23)nc2ccccc2c1=O`, with -0.84%.
The result for `COc1ccc(-c2noc(CSc3nnc(-c4ccncc4)n3-c3ccc(C)cc3)n2)cc1` reads -22.5%.
On to `O=C(CCN1CCN(c2ccccc2F)CC1)Nc1ccc(F)cc1`, for which the inhibition is active: 87.5%.
As for `N#Cc1c[nH]n2c(NC3CCCC3)c(-c3cccc(Cl)c3)nc12`, the inhibition turned out to be 5.9%.
Turning to `Cc1ccc(N(CC(=O)Nc2ccc(C)c(F)c2)S(=O)(=O)c2c(C)n[nH]c2C)cc1`, the inhibition was -1.64%.
The result for `CCCCOc1ccc(CN2CCCCC2)cc1` reads active: 52.1%.
The result for `CCOc1cc(C(=O)N2CCc3c([nH]c4ccccc34)C2c2ccccc2)cc(OCC)c1OCC` (stereo unspecified) reads 9.46%.
For `COc1ccc(C)cc1NC(=O)Cn1c(=O)ccc2cc(S(=O)(=O)N3CCCC3)ccc21`, the inhibition worked out at 18.2%.
Then `CCOC(=O)c1sc2ncn(CC(=O)Nc3ccc(C)cc3Br)c(=O)c2c1C`, with 1.57%; and `COc1ccccc1CNc1ccc(-c2nc(-c3ccncc3)no2)cc1[N+](=O)[O-]`, with -14.8%; and `CCOc1ccc(NC(=O)CSC2=Nc3ccccc3C3=NC(CC(=O)NCc4ccco4)C(=O)N23)cc1` (stereo unspecified), with 17.9%.
The result for `COc1ccc(CNC(=O)CC(c2ccc(OC)c(OC)c2)N2Cc3ccccc3C2=O)cc1` (stereo unspecified) reads 9.03%; that for `Cc1cc2ccccc2n1CCNC(=O)c1cccc(Cl)c1`, 4.08%; that for `CC(C)c1ccc(NC(=O)c2cc(S(=O)(=O)NCc3ccccc3Cl)ccc2F)cc1`, 0.331%.
Then `CCOC(=O)c1c(C)[nH]c(C)c1S(=O)(=O)N1CCCC(C(=O)Nc2ccc(F)cc2F)C1` (stereo unspecified), with -0.811%; and `COc1cc(C2CC(=O)N(c3ccccc3)C3=C2C(=O)OC3)cc(OC)c1OC` (stereo unspecified), with 21.7%.
Consider `O=C(NC1CCCCCC1)c1ccc2c(c1)sc1nc(-c3ccccc3)cn12`, for which the inhibition was 11.9%.
The result for `C=C(C)CSc1nc2sc3c(c2c(=O)n1-c1ccccc1)CCC(C)C3` (stereo unspecified) reads -4.66%; that for `CCN1CCN(c2ncnc3c2cnn3-c2ccc(C)cc2)CC1`, 8.9%.
As to `CCOc1ccc(NC(=O)CSc2cn(CC(=O)N3CCCCCC3)c3ccccc23)cc1`, the inhibition turned out to be 0.6%.
The result for `CCOC(=O)N1CCN(C(=O)c2ccc(OCC)c(OCC)c2)CC1` reads active: 32.7%.
Then `COc1ccc(-c2n[nH]c3c2C(c2ccc(O)cc2)N(c2ccc(Br)cc2)C3=O)cc1` (stereo unspecified), with 4.66%; and `COc1ccc(CCNC(=O)c2ccc(CS(=O)(=O)Cc3cccc(C)c3)o2)cc1OC`, with -16%; and `Cc1ccc(CNC(=O)C(=O)NCC(c2ccco2)S(=O)(=O)c2cccs2)cc1` (stereo unspecified), with -0.296%.
The result for `CCN1CCN(C(c2ccc(F)cc2)c2c(O)cc(C)n(CCOC)c2=O)CC1` (stereo unspecified) reads 6.03%; that for `Cc1cc(OCC(=O)Nc2ccc(Br)cc2)cc2c1C(=O)CC(C)(C)O2`, active: 41.2%.
